Results published in PubChem BioAssay AID488969 (Vanderbilt High Throughput Screening Facility, 2010).
The full ranking holds about 110,000 compounds; the median of “z-score” is about -0.1, and the highest 2% start at about 2. This is one part of the list. Calls of active or inactive are those of the source.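 Rule for the calls: active = z-score in the third read window above 3 or below -3; inactive = the rest.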

target: Metabotropic glutamate receptor 8 (Rattus norvegicus) (UniProt P70579); assay: rat mGluR8 modulators via GIRK flux, primary screen, cell-based, thallium flux, HTS (AID 488969); details: HEK293 rat mGluR8, GIRK (G protein-gated inwardly rectifying potassium channel) thallium flux, FluoZin2; at 10 µM; stronger effect = higher value; submaximal glutamate (EC20) added with thallium
Sequence of UniProt P70579 (P70579 whole entry, looked up): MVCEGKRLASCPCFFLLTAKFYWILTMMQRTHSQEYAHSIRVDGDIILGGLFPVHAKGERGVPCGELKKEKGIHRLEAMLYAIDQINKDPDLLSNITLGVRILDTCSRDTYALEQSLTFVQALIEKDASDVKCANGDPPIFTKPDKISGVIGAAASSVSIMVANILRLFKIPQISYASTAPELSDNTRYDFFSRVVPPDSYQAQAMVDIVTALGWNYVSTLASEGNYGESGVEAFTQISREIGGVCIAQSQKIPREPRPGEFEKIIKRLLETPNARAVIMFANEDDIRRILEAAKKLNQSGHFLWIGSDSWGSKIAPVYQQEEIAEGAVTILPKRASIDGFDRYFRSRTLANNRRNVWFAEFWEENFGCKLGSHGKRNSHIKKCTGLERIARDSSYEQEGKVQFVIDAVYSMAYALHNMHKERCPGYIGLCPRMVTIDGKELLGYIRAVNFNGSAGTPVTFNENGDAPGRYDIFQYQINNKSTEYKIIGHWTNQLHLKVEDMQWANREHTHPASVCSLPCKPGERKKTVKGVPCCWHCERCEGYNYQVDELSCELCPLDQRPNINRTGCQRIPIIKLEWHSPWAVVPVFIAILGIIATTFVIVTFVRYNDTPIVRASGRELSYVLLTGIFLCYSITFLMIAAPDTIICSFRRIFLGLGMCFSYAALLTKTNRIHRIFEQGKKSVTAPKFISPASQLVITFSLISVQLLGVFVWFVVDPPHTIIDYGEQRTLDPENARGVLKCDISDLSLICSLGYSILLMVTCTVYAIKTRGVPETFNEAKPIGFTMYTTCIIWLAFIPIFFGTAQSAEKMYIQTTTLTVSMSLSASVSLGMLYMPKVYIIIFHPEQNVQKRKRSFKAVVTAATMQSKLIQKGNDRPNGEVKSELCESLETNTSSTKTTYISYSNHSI

Row | SMILES | z-score
1 | COC(=O)c1sc(S(=O)(=O)NCc2ccccc2)c(C(=O)OC)c1C | -0.852
2 | COc1ccc(C2/C(=C(/O)c3ccccc3)C(=O)C(=O)N2CCN2CCOCC2)c(OC)c1 (stereo not drawn) | -0.05
3 | CN(Cc1ccccc1)C1CC(=O)N(c2ccc(C(=O)O)cc2)C1=O (stereo not drawn) | 0.626
4 | CCCc1cc(NCCCN2CCOCC2)n2c(nc3ccccc32)c1C#N | -0.336
5 | CC(C)Cc1nc2n[nH]c(N)c2c2c1COC(C)(C)C2 | -0.0819
6 | C=CCN(c1ccccc1)S(=O)(=O)c1ccc(Cl)c(C(=O)OCC(=O)c2[nH]c(C)c(C(C)=O)c2C)c1 | 0.731
7 | CCOC(=O)C1=C(CSc2nc3ccccc3s2)NC(=O)NC1c1ccc(OC)cc1 (stereo not drawn) | -0.273
8 | Cc1cc(C)c(C)c(C(=O)CSc2nnc(C)c(=O)[nH]2)c1C | -0.142
9 | O=C(CCc1ccccc1)NNC(=O)COc1ccccc1 | 0.641
10 | O=C(Cn1nnc(-c2ccccc2NC(=O)c2ccccc2F)n1)NCc1ccco1 | 0.668
11 | Cc1cc(C(=O)COc2ccc3ccc(=O)oc3c2)c(C)n1Cc1cccs1 | -0.421
12 | CCOc1ccc(NC(=O)c2ccc(Br)o2)c([N+](=O)[O-])c1 | -0.00177
13 | CS(=O)(=O)N(CC(=O)NC1CCCCC1)Cc1ccc(Cl)cc1 | -0.031
14 | CCC(C)(C)C1CCC2(CC1)NC(CO)(CO)CO2 (stereo not drawn) | -0.0633
15 | CC(=O)/C=C(/C)NC(Cc1c[nH]c2ccccc12)C(=O)O (stereo not drawn) | 0.276
16 | CCCCC1CCC(C(=O)NCc2ccc3c(c2)OCO3)CC1 (stereo not drawn) | -0.022
17 | c1ccc(C2=Nc3ccccc3OC2)cc1 | -0.499
18 | Cc1ccccc1OCC(=O)Nc1ccc2c(c1)COC2=O | 1.28
19 | Cn1c(SCc2ccccc2Cl)nnc1-c1cnccn1 | -0.387
20 | Cc1cc(Cl)ccc1NC(=O)CCC(=O)O | -0.227
21 | CC1/C(=N/O)CC(c2ccccc2)NC1c1ccccc1 (stereo not drawn) | -0.071
22 | COC(=O)c1ccc(C2CC(=O)Nc3cc(OC)c(OC)cc32)cc1 (stereo not drawn) | 0.0182
23 | NC(=O)CSc1nnc(-c2cc(-c3cccs3)nc3ccccc23)o1 | -0.323

Row | SMILES | z-score
24 | Cc1nc2ccc(NC(=S)NC(C)C)cc2nc1C | -0.0416
25 | COc1ccc(OC)c(NC(=O)CSc2nc(C)cs2)c1 | 0.389
26 | CN(C(=O)c1ccc2c(c1)C(=O)N(CCC1=CCCCC1)C2=O)C1CCCCC1 | 0.422
27 | CC(Sc1nc(-c2ccccc2)cc(C(F)(F)F)n1)C(=O)N1CCOCC1 (stereo not drawn) | -0.153
28 | COc1ccc(C(=O)Nn2c(C)ccc2C)cc1OC | 0.582
29 | Clc1ccccc1-c1nc2ccccc2c2nncn12 | -0.0267
30 | Cc1sc2nc(C3CC3)nc(SCC(=O)N3CC(=O)Nc4ccccc43)c2c1C | active: 3.69
31 | Cc1ccc(C(=O)Nc2nncs2)cc1S(=O)(=O)N1CCOCC1 | 0.137
32 | COCc1cc(C)nc(NC2CCCCC2)c1C#N | -0.242
33 | COC(=O)c1ccccc1NC(=O)n1cc(C)cn1 | 0.0551
34 | CCCNC(=O)CCn1c(-c2ccc(C)cc2)cc(C(=O)OCC)c1C | -0.234
35 | Cc1ccc(S(=O)(=O)N(C)CCCC(=O)n2nc(C)cc2C)cc1 | 0.215
36 | O=C(COC(=O)Cc1ccc(S(=O)(=O)N2CCOCC2)s1)NCc1ccccc1 | 1.9
37 | O=C(Nc1cccc(Oc2c(F)c(F)c(F)c(F)c2F)c1)N1C[C@@H]2C[C@@H](C1)c1cccc(=O)n1C2 | 0.599
38 | Cc1ccc(NC(=O)Cc2nc(CCl)cs2)cc1 | -0.0491
39 | O=C(OCn1ncc(Br)c(Br)c1=O)c1c(F)cccc1F | 0.165
40 | FC(F)(F)c1ccc(N2CCN(c3cc(-c4ccccc4)nc4ncnn34)CC2)nc1 | -0.657
41 | CCOc1cc(/C=C(/C#N)c2nc3ccccc3[nH]2)ccc1Oc1ccc([N+](=O)[O-])cn1 | -1.65
42 | Cc1nc(S(=O)(=O)N(C)Cc2ccccc2)c(C#N)c(C)c1Cl | -0.0847
43 | OCCN(CCO)c1ncnc2c1sc1nc(N3CCOCC3)c3c(c12)CCCC3 | 0.65
44 | Cc1cc(N)c(-n2cc3c(=O)n(C)c(=O)n(C)c3c2)cc1C | 0.679
45 | O=C(NCC(=O)N(c1ccccc1)C(C(=O)NC1CCCC1)c1ccncc1)c1ccco1 (stereo not drawn) | -0.115
46 | Cc1ccc(/C=N/NC(=S)N2CCOCC2)cc1 | active: 4.72

Row | SMILES | z-score
47 | O=C(CCCN1C(=O)c2ccccc2C1=O)Nc1c2c(nc3c1CCC3)CCC2 | 0.531
48 | O=C(/C=C/c1ccc(Cl)cc1)NCc1cccs1 | -0.307
49 | O=C1C(=C2SCCCS2)CC/C1=C\c1ccc(F)cc1 | -0.247
50 | C=CCn1c(SCC(=O)Nc2ccc(C)cc2C)nnc1-c1cccnc1 | -0.245
51 | COc1ccc(C(C[N+](=O)[O-])c2c(-c3ccccc3)cc3ccccn23)cc1 (stereo not drawn) | 0.715
52 | Cc1ccc(/C=C/c2nnc(-c3ccccc3)o2)cc1 | -0.0954
53 | O=S(=O)(c1ccc(F)cc1)N1CCN(C(=S)NC2CCCC2)CC1 | -0.225
54 | COc1cc2nc(CN(C)Cc3nc4ccccc4c(=O)[nH]3)[nH]c(=O)c2cc1OC | -0.442
55 | Cc1cccc(NC(=O)C2NC(=O)CC2c2ccccc2)c1C (stereo not drawn) | 0.0322
56 | COc1cccc(C(C(=O)NC2CCCCC2)N(C(=O)c2ccco2)c2ccc(-n3cnnn3)c(C)c2)c1 (stereo not drawn) | -0.0284
57 | COc1ccc(C)cc1N(C(=O)COc1ccccc1)c1nc2ccccc2s1 | -0.872
58 | N=c1n(Cc2ccc(Cl)cc2)c2ccccc2n1CC(O)c1ccco1 (stereo not drawn) | 0.315
59 | OC(CN1CCCCC1)Cn1c(C(F)(F)F)nc2ccccc21 (stereo not drawn) | 0.391
60 | CC(NC(=O)Nc1ccc(Cl)cc1)C(c1cccs1)N1CCOCC1 (stereo not drawn) | 1.04
61 | COc1ccc(NC(=O)/C=C/c2ccc(F)cc2)cn1 | -0.0123
62 | CSc1nc2ccccc2n1CC(=O)Nc1c(C)cccc1C | -1.32
63 | CC(C)C(=O)NC(c1ccco1)c1c(O)ccc2ccccc12 (stereo not drawn) | -0.289
64 | Cc1ccc(-c2csc(NC(=O)C3CC=CCC3C(=O)O)c2C(=O)OC(C)C)cc1 (stereo not drawn) | 0.131
65 | COc1ccccc1CNC(=O)C(C)NS(=O)(=O)c1ccccc1 (stereo not drawn) | -0.89
66 | CCn1c(=NC(=O)c2ccc(S(=O)(=O)N3CCOCC3)cc2)sc2cccc(OC)c21 | -0.172
67 | CC(=O)N1CCc2cc(S(=O)(=O)CCC(=O)NCc3cccs3)ccc21 | 0.0317
68 | CCOC(=O)C(=O)NNc1ccc(C)cc1 | 0.000829
69 | O=S(=O)(NCC1CCCO1)c1ccc(S(=O)(=O)N2CCCC2)cc1 (stereo not drawn) | 0.352

Row | SMILES | z-score
70 | [O-]/[N+](=C/c1ccc(F)cc1)c1ccccc1 | -0.26
71 | CN(C)S(=O)(=O)c1ccc(C(=O)NC(=O)CSc2ccccc2)cc1 | 0.101
72 | CCOc1ccccc1CNC(=O)CCNC(=O)Cn1ccc2ccccc2c1=O | 0.269
73 | COc1nc(-c2ccccc2)cc(-c2ccc(OC)c(OC)c2)n1 | -0.612
74 | COCCOc1ccc(C(F)(F)F)cc1NC(=O)c1ccc(C)cc1 | -0.204
75 | COc1ccccc1CNC(=O)c1ccc(NS(=O)(=O)c2c(C)noc2C)cc1 | -0.259
76 | Cc1ccc2nc(C)cc(N3CCOCC3)c2c1 | 1.22
77 | Cn1c(SCC(=O)c2ccc3c(c2)Cc2ccccc2-3)nnc1-c1ccccc1 | 0.0103
78 | CCN1C(=O)/C(=C2\C=Cc3ccccc3N2CC)OC1=S | -0.536
79 | FC(F)(F)c1cc(-c2ccco2)nc(NCc2ccco2)n1 | -0.773
80 | CCCCCCC(=O)Nc1nc(C)c(-c2csc(Nc3cc(Cl)ccc3C)n2)s1 | 0.0842
81 | CCCn1c(N2CCN(C)CC2)nc2c1c(=O)[nH]c(=O)n2C | 0.044
82 | Cc1cc(C)n2nc(Cc3ccccc3)nc2n1 | -0.125
83 | COc1cc(NS(=O)(=O)c2ccc(Br)s2)cc(OC)c1 | 0.398
84 | O=C(CCN1C(=O)COc2ccccc21)NCCCN1CCN(c2ccccc2F)CC1 | 0.474
85 | O=C(CCSc1nc(-c2ccco2)cc(C(F)(F)F)n1)NCc1cccs1 | -0.574
86 | CC(C)CNC(=O)/C=C/c1cccs1 | -0.176
87 | Cc1ccc(-n2c(C)csc2=N)cc1 | -0.299
88 | CNC(=S)NCc1ccc(OC)cc1 | -0.0941
89 | COc1ccc2c(c1)c1nc3ccccc3nc1n2Cc1ccc(OC(C)C)c(OC)c1 | -0.644
90 | CCn1ncc(/C=N\NC(=O)COc2ccccc2)c1C | 0.185
91 | COC(=O)c1sccc1NC(=S)N1CC(C)CC(C)C1 (stereo not drawn) | 0.0349
92 | CC(=O)c1c(C(C)=O)c(C)n(CCCCn2c(C)c(C(C)=O)c(C(C)=O)c2C)c1C | -0.0757

Row | SMILES | z-score
93 | O=S(NCc1ccco1)C12CC3CC(CC(C3)C1)C2 (stereo not drawn) | -0.122
94 | Cc1nn(-c2nc3ccccc3s2)c(N)c1-c1ccc(Cl)cc1 | 0.0121
95 | CCN(CC)CCn1c2ccccc2c2cnc(N)c(C#N)c21 | -0.434
96 | CCCC(C)c1nnc(NC(=O)CS(=O)(=O)Cc2ccccc2)s1 (stereo not drawn) | 1.15
97 | Cc1ccc(-c2nn(C)c(=O)c3ccccc23)cc1CNC(=O)CN1CCOCC1 | -0.774
98 | COc1ccc(CCNc2ccc(C)cc2)cc1 | -0.282
99 | O=S(Cc1cc(Oc2ccccc2)nc(-c2ccccc2)n1)c1ccccc1 (stereo not drawn) | -0.774
100 | COc1ccc(NC(=O)N2CCCC2)cc1OC | -0.0117
101 | CNC(=O)C(C)NS(=O)(=O)c1ccc(F)cc1 (stereo not drawn) | -0.143
102 | c1ccc(-c2cc3n(c2)CCc2ccccc2-3)cc1 | -0.476
103 | O=P(O)(CCc1ccccn1)CN1CCOCC1 | 0.13
104 | COc1ccccc1CN1C(=O)c2ccncc2C1=O | -0.233
105 | CCOC(=O)c1c(-c2ccccc2)csc1NC(=O)c1ccc(N2C(=O)CCC2=O)cc1 | -0.0931
106 | CN1CC=C2C(C#N)=C(N)C(C#N)(C#N)C(c3ccsc3)C2C1 (stereo not drawn) | -1.4
107 | Cc1csc2ncc(C(=O)N3CCCc4ccccc43)c(=O)n12 | -0.186
108 | COc1cccc(NC(=O)Cn2c(=O)n(-c3ccccc3)c(=O)c3oc4ccccc4c32)c1 | -0.377
109 | COc1ccc(NC(=O)CN2CCN(C3c4ccccc4-c4ccccc43)CC2)cc1 | -0.411
110 | CN(C)CCNC(=O)Cn1nc(-c2ccc(Cl)cc2)ccc1=O | -0.312
111 | Cc1ccc2c(CC(=O)OCC(=O)Nc3ccc(Cl)cn3)coc2c1 | -0.196
112 | O=C(CCN1C(=O)c2ccccc2C1=O)N1CCN(C2c3ccccc3-c3ccccc32)CC1 | 0.0521
113 | Cc1cnc(C(=O)OCC(=O)NC23CC4CC(CC(C4)C2)C3)cn1 | -1.14
